# Measurements reported in the supplement of paper PMC12632987.
# In all, about 2,300 sequences were measured (“median log2 fold change of GCK-ALFA target abundance (FLAG IP / Myc IP barcode read proportion)”: median about 0.095, lowest 2% from about -0.47 on). The list shows a part of the results.
# B1: LC3A_59_2036 (protein)
# chain: APTAEEIVAQIIATLNKAAKELEKAGDDMAAAKKIIDAMMAEVDALLAELAKVDPELAAEVKAELDAMKEELAKAKTVKEMADIVRTTALGIELILNELD
# B2: LC3A_3_1493 (protein)
# chain: MEELLERVREVLEELGASPEEIERVLEDARELLERGYEKTVERLIELLRRYRHLSPRDLVAAALTVADVAIEENLSEEEAVEKAERIFEDVAEIEELDEE
# B3: LC3A_28_865 (protein)
# chain: SKTEESAEEALKEAKEAKAKGESTVIVIRIYGKASEEEIDKVIEALKEIAEILKDIPNQGIIIEAEEPIDPEQLKKLADAADEIEKKYPNVTVIIALPEE
# B4: LC3A_28_785 (protein)
# chain: SEIEENVEKAIEEAREAKEKGESVVITIKVPGDATEEDIEKVIEALEEIAEILEGVEDQAIIIDVDSDVKPEHIKKLAEKAEEIEEKYPNVTVIIALEEK
# B5: LC3A_free_46_2375 (protein)
# chain: MRIEIYAYKEGWTEEEAKALAEEIAEAIKKVAEELGVEVEIKTEVVKNADGSYLVKVTVEIKAPTKEKALEAEKAILDTVDKILKERGAAAIISVEEIEE
# B6: LC3A_3_1716 (protein)
# chain: AEKIKEETLEELRKKGASEETIKAAEELLNELIEKGYLEALKTLLEEVKKMKGISSEILLAMFKDLLHIVKTEDLDEEELIKEIKREFRIAKSENEIEEL
# B7: LC3A_3_1432 (protein)
# chain: MEELLEEARRVLEEAGFDEETREAVLRLLRLALEAGKEEEARELIEVLKEAKNVDSEKVREAAERALRRIEEEGVPVEEAVREFIDELRVLRLETEIEEL
# B8: LC3A_3_1820 (protein)
# chain: MEAERAETLAELAAAGASPETLAAVNEAVEALIEKGYYEAAKTLIELMRELKDLPSELLLEFAQEVLELIKTSDLSEEEMTKEIKKIASTVRNEAEIEEL
# Biological target: MAP1LC3A, Q9H492
# Test: median log2 fold change of GCK-ALFA target abundance (FLAG IP / Myc IP barcode read proportion) (log2 ratio); each designed protein is fused to an ALFA-tag nanobody in HEK293 cells to bring the named protein to FLAG-tagged glucokinase (GCK); Myc marks an untargeted standard; higher = target protein stabilised (more abundant)
# Settings: target protein: 3xFLAG-MCP-GCK-ALFA reporter; HEK293 landing pad (RPLP)
# Method in brief: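 Sequencing of reverse-transcribed, amplified circular RNA barcodes from anti-FLAG and anti-Myc immunoprecipitates provided the readout for an ALFA-nanobody-fused binder library recombined into HEK293 landing-pad cells. Those cells were induced with 2 μg mL^−1 doxycycline, transfected with a plasmid expressing a FLAG-tagged target and a Myc-tagged standard, and lysed after 48 h. Target abundance is the per-binder median log2 ratio of FLAG to Myc barcode read proportions. Only barcodes at a proportion of ≥10^−7 in both replicates and binders with ≥3 barcodes per replicate were kept, with a 10^−6 pseudocount added before the two replicates were pooled.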
row,Binder,median log2 fold change
1,B1,0.356
2,B2,-0.221
3,B3,0.279
4,B4,0.0676
5,B5,-0.0699
6,B6,0.281
7,B7,0.493
8,B8,0.287
